Where “and” joins values, the source holds several entries; their conditions need not be identical. Equal entries are not always repeated. The whole screen tested about 420,000 compounds, of which about 64,000 (15%) were called active. This list was built around the results that the source calls inconclusive (neither active nor inactive); the mix of calls is not that of the screen. Calls follow the shape of the dose curve; as a rule, active = well fitted inhibition curve with a large enough effect; inconclusive = small, poorly fitted or top-dose-only effect; inactive = flat fitted curve, though single readings scatter. Potencies of inconclusive entries are left out as doubtful fits. A structure can be active in one record and inactive in another.
Test: qHTS for Inhibitors of human tyrosyl-DNA phosphodiesterase 1 (TDP1): qHTS in cells in absence of CPT; also: nearly all actives have a fitted effect of over 55% in size
Conditions: DT40 Tdp1-/- hTDP1 cells, no CPT, ATP luminescence, 48 h; activity change, negative = growth inhibition: at 46.2 µM (top of the series) unless noted
Procedure, shortened: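 Seeded 400 DT40-hTDP1 cells/well (vehicle DMSO, no 20 nM CPT); pinned compounds; ≥48 hr at 37 °C; CellTiter-Glo luminescence as viability measure.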
% is scaled to controls: 0 for no effect and ±100 for the full control effect; potency is read from the fitted curve at half-maximal effect; tags tell the direction and shape of the fitted curve.

Compound | Potency | activity change, negative = growth inhibition
CCC(=Nc1cc(OC)ccc1OC)c1c(O)[nH]c(=O)[nH]c1=O | inactive | –
CC1=Nc2ccccc2/C1=C/c1c(O)n(C)c(=O)[nH]c1=O | inconclusive [inhibitor, single point] | –
COc1ccc(OC)c(NC(=O)Cn2cc(C(=O)c3ccccc3)c3ccccc32)c1 | inconclusive [inhibitor, single point] | –
COc1ccc(Nc2cc(C)c3cc(NC(=O)c4ccccc4Cl)ccc3n2)cc1 | active: 9.2 µM | –
Cc1ccc(CN(Cc2ccccc2)C(=S)NCC(=O)N2CCC3(CC2)OCCO3)o1 | inconclusive [inhibitor, single point] | –
CCCCC1(CN2CCCC2=O)C(=O)NC(=O)NC1=O | inactive | –
C[C@H](CO)N1C[C@H](C)[C@H](CN(C)S(=O)(=O)c2ccccc2)Oc2ccc(NC(=O)NC3CCCCC3)cc2CC1=O | inconclusive [inhibitor, single point] | –
CCOCCCNC(=O)c1c[nH]c2ccc(S(=O)(=O)N(C)c3ccc(Cl)cc3F)cc2c1=O | active: 16.4 µM | –
COc1ccccc1-n1c(-c2cccs2)nc2ccccc2c1=O | active: 13 µM | –
C=C(C)[C@H]1CN[C@H](C(=O)O)[C@H]1CC(=O)O | inactive and active: 21.1 µM | –
c1cc2c(cc1N1CCOCC1)CNCc1cnnn1-2 | inactive | –
O=c1[nH]c(N2CCN(Cc3ccc4c(c3)OCO4)CC2)nc2c1CCC2 | inactive | –
Cc1nc2cc([N+](=O)[O-])ccc2c(=O)n1-c1cccc(Br)c1 | active: 18.4 µM | –
Cc1cccc(NP(=O)(Oc2ccccc2F)Oc2ccccc2F)c1 | inconclusive [inhibitor, single point] | –
CCCCn1c(N)c(C(=O)OCCOC)c2nc3ccccc3nc21 | inactive | –
CC(=O)Nc1ccccc1C(=O)OCC(=O)c1ccc2ccccc2c1 | inactive | –
CCN(c1cccc(C)c1)S(=O)(=O)c1ccc2c(c1)oc(=O)n2C | inconclusive [inhibitor, full curve] | –
O=C(c1cccc2ccccc12)C1CCCN(C2CCC2)C1 (stereo not given) | inconclusive [inhibitor, single point] | –
NC(=O)Nc1ccc(C(=O)OCC(=O)Nc2ccc(Cl)cc2C(=O)c2ccccc2)cc1 | inactive | –
Cc1cc(-c2nc3ncccc3o2)ccc1NC(=O)c1ccccc1Br | inconclusive [inhibitor, single point] | –
C[C@]12CCC3C(CC[C@H]4C[C@H](O)CC[C@]34C)C1[C@@H](O)C[C@@H]2O (stereo not given in full) | inactive | –
CCOc1ccc(C(=O)Nc2cc(NC(=O)c3ccco3)ccc2OC)cc1Br | inconclusive [inhibitor, full curve] | –
CCCCn1c(O)c(C(CC)=NCCc2ccccc2)c(=O)[nH]c1=O | inconclusive [inhibitor, partial curve] | –
COc1ccc(C2C(C#N)=C(N)Oc3c2c(=O)oc2ccccc32)cc1Cn1cc([N+](=O)[O-])cn1 (stereo not given) | inactive | –
Cc1ccc(N2C(=O)/C(=C/c3ccc(CN(CCC#N)S(C)(=O)=O)o3)C(=O)NC2=S)cc1 | inactive | –

Compound | Potency | activity change, negative = growth inhibition
Cn1c(O)c(C(=N)COc2ccccc2)c(=O)n(C)c1=O | inactive | –
CCOc1ccc2nc(NC(=O)c3cccn(Cc4ccccc4)c3=O)sc2c1 | inconclusive [inhibitor, full curve] | –
CC(C)N(C(=O)CCl)c1ccccc1 | active: 5.17 µM and active: 8.2 µM | –
COc1cccc(CNCCc2ccc3c(c2)OCO3)c1OC | inconclusive [inhibitor, single point] | –
Cc1nc2sc3c(c2c(=O)n1NC(=O)CCl)CCCC3 | inconclusive [inhibitor, partial curve] | –
COC(=O)[C@@H]1C(OC(=O)c2ccccc2)CC2CCC1N2C (stereo not given in full) | inconclusive [inhibitor, single point] | –
CC(=NCc1cccnc1)c1c(O)n(-c2ccccc2)c(=O)[nH]c1=O | inactive | –
Cc1cc(-c2ccc(N)c(C)c2)ccc1N | inactive | –
COc1ccc2nc(NC(=O)CCc3nc(C4=CCN(C)CC4)no3)sc2c1 | inactive | –
CCOC(=O)[C@]12Cc3cc(Cl)ccc3[C@H]1N(CC(=O)OC)C(=O)c1ccccc12 | active: 4.11 µM | –
COC(=O)C1=C(c2ccc(OC)c(OC)c2)C[C@@H]2CC[C@H]1N2C(=O)NCCOc1ccccc1Cl | inconclusive [inhibitor, single point] | –
CN(C)C(=S)SSC(=S)N(C)C | active: 130 nM and active: 133 nM and active: 146 nM | –
CC(C)(C)c1[nH]nc2c1C(c1ccoc1)C(C#N)=C(N)O2 (stereo not given) | inconclusive [inhibitor, full curve, poor fit] | –
COC(C(=O)C(O)C(C)O)C1Cc2cc3cc(OC4CC(OC5CC(O)C(O)C(C)O5)C(O)C(C)O4)c(C)c(O)c3c(O)c2C(=O)C1OC1CC(OC2CC(OC3CC(C)(O)C(O)C(C)O3)C(O)C(C)O2)C(O)C(C)O1 (stereo not given) | active: 0.0282 µM | –
COc1cc2c(cc1OC)[C@@H]1C(=O)c3ccc4oc(C(C)C)cc4c3OC1CO2 (stereo not given in full) | active: 0.291 µM | –
Cc1c(C(C)(C)C)s/c(=N/S(=O)(=O)c2ccccc2)n1C | inconclusive [inhibitor, partial curve] | –
COc1ccc(CN2CCN(C(=O)Cn3c(=O)oc4cc(Cl)ccc43)CC2)c(OC)c1OC | inconclusive [inhibitor, single point] | –
N#CCCn1cc(C(=O)Nc2ccccc2Br)c(-c2ccc3c(c2)OCCO3)n1 | – | inconclusive: -34.4% [inhibitor]
CC(=NCCN1CCOCC1)c1c(O)n(Cc2ccccc2)c(=O)[nH]c1=O | inactive | –
CCOC(=O)[C@]12Cc3c(cc(OC)c(OC)c3OC)[C@H]1N(C(C)C)C(=O)c1cc(OC)ccc12 | active: 7.31 µM | –
C[C@@H](Cc1ccc(OCC(=O)O)cc1)NC[C@H](O)c1cccc(Cl)c1 | inactive | –
Cc1ccccc1OCCN=Cc1c(O)n(C)c(=O)n(C)c1=O | active: 20.6 µM | –
COC(=O)C1=C(c2ccc(F)cc2OCc2ccccc2)C[C@@H]2CC[C@H]1N2C(=O)NCc1cc(C)oc1C(F)(F)F | inconclusive [inhibitor, single point] | –
O=C1C2CCCC1C(N1CCCC1)CC2 (stereo not given) | inactive | –
Cc1cc(C=C2C(=O)NC(=S)NC2=O)c(C)n1-c1ccc2c(c1)OCO2 | inconclusive [inhibitor, single point] | –

Compound | Potency | activity change, negative = growth inhibition
Cc1cccc(N2CCN(C(=O)CCNS(=O)(=O)c3ccc4c(c3)oc(=O)n4C)CC2)c1C | active: 16.4 µM | –
NS(=O)(=O)c1ccc(CCNc2ccn3nc(-c4cccc(C(F)(F)F)c4)cc3n2)cc1 | inconclusive [inhibitor, single point] | –
Cc1ccc(OCC(=O)N2CCN(Cc3ccc(F)cc3)CC2)cc1 | inactive | –
Brc1ccc2c(c1)CN(CC1CCCCC1)Cc1cnnn1-2 | inconclusive [inhibitor, single point] | –
Cc1ccc(C(C)(C)C)c(OCC(=O)Nc2ccc(Cl)cc2C(=O)c2ccccc2)c1 | – | inconclusive: -34.5% [inhibitor]
CC1CC[C@@]2(NC1)O[C@@H]1C[C@H]3C4CC=C5C[C@@H](O)CC[C@]5(C)C4CC[C@]3(C)[C@H]1[C@@H]2C (stereo not given in full) | inactive | –
Cn1c(=O)c2c(nc(N/N=C/c3c(O)n(C4CCCCC4)c(=S)[nH]c3=O)n2C)n(C)c1=O | inconclusive [inhibitor, single point] | –
CC(C)C(=O)N1CCC(CN=Cc2c(O)n(C3CCCCC3)c(=O)n(C3CCCCC3)c2=O)CC1 | active: 23.1 µM | –
COc1cccc(-n2c(/C=C\c3ccc(Cl)cc3)nc3ccccc3c2=O)c1 | active: 18.4 µM | –
COc1ccc(CCNC2CCCCC2)cc1OC | inactive | –
c1cnc2c(c1)ncn2C1CCNCC1 | inactive | –
O=c1[nH]c(=O)n(Cc2ccccc2)c(O)c1/C=C1\C=Nc2ccccc21 | – | inconclusive: -33.8% [inhibitor]
Nc1cc(Cl)cc(Cl)c1 | inactive | –
COC(=O)C1=C(c2cccc(C#N)c2)C[C@@H]2CC[C@H]1N2C(=O)N1CCC(O)CC1 | inactive | –
O=C(c1cc(-c2ccncc2)nc2ccccc12)N1CCC2(CC1)OCCO2 | inconclusive [inhibitor, partial curve] | –
CCc1cc2c(s1)N(CC(=O)OC)C(=O)CN=C2c1ccccc1OC | inconclusive [inhibitor, single point] | –
CN(C(=O)CSc1nc2ccc(NC(=O)COc3ccc(Cl)cc3)cc2s1)c1ccccc1 | active: 10.3 µM | –
Cc1ccc(-c2noc(=O)n2CC(=O)Nc2ccc(S(=O)(=O)NC3CC3)cc2)cc1 | inconclusive [inhibitor, single point] | –
O=c1c2ccccc2nc(CSc2ncnc3nc[nH]c23)n1-c1ccc(Cl)c(Cl)c1 | active: 10 µM | –
C=CCN1C(=O)NC(=O)/C(=C\c2ccc(-c3ccccc3[N+](=O)[O-])o2)C1=O | active: 18.4 µM | –
CN1CCN(Cc2cc(=O)n3ccsc3n2)CC1 | inactive | –
COC(=O)C1=C(c2cccc(OCc3ccccc3)c2)C[C@@H]2CC[C@H]1N2C(=O)NCCc1ccc(F)cc1 | active: 16.4 µM | –
CC(C)(C)NCC(O)c1ccccc1Cl (stereo not given) | inactive | –
CCCCCCn1c(=O)c(C(=O)Nc2cnccn2)c(O)c2ccccc21 | active: 0.58 µM | –
Cn1nc(-c2ccc(OCC(=O)N3CCN(Cc4ccccc4)CC3)cc2)c2ccccc2c1=O | active: 13 µM and active: 6.51 µM | –

— PubChem BioAssay AID686978 (National Center for Advancing Translational Sciences (NCATS), 2013)
